Several values for one entry are separate records, joined by “and”; a condition that tells them apart may be missing. Equal entries are not always repeated. The inconclusive results got no clear call from the source; some entries with a clear call stand among them for comparison. For some assays here: Where the call is inconclusive, the potency comes from a doubtful curve fit. The source holds several records for some structures; these can differ, active in one and inactive in another. Activity calls are given as the source filed them. Unless noted, calls come from the whole dose curve; as a rule, active = well fitted curve in the direction sought with a large enough effect in the repeat runs; inconclusive = weak or mixed curves; inactive = no such curve, though single readings can be large; an effect the other way counts as inactive or inconclusive.
Legend:
[1] = qHTS assay to identify aromatase inhibitors - cell viability counter screen (AID 743084); settings: MCF-7 aro ERE viability, CellTiter-Fluor, 24 h; activity change, negative = cytotoxicity: at 70.3 µM (top of the series);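 note: cells stimulated with testosterone during compound exposure; nearly all actives have a fitted effect of over 55% in size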; for activity change, negative = cytotoxicity: % is set by controls: 0 for no effect and ±100 for the full control effect
[2] = biological target: Peroxisome proliferator-activated receptor gamma (Homo sapiens) (UniProt P37231); test: qHTS assay to identify small molecule agonists of the peroxisome proliferator-activated receptor gamma (PPARg) signaling pathway (AID 743094; active = well fitted activation curve with a large enough effect in the signal ratio in the repeat runs, not every such curve was filed as active; inconclusive = weak or mixed curves, or effect the other way; inactive = no such curve, though single readings can be large or run the other way; the % refers to the signal ratio; for activation: % is set by controls: 0 for no effect and ±100 for the full control effect); settings: HEK293H PPARg-UAS-bla, beta-lactamase FRET ratio, 17 h; activation: at 57 µM (top of the series) unless noted
UniProt P37231, sequence (P37231 whole entry, looked up): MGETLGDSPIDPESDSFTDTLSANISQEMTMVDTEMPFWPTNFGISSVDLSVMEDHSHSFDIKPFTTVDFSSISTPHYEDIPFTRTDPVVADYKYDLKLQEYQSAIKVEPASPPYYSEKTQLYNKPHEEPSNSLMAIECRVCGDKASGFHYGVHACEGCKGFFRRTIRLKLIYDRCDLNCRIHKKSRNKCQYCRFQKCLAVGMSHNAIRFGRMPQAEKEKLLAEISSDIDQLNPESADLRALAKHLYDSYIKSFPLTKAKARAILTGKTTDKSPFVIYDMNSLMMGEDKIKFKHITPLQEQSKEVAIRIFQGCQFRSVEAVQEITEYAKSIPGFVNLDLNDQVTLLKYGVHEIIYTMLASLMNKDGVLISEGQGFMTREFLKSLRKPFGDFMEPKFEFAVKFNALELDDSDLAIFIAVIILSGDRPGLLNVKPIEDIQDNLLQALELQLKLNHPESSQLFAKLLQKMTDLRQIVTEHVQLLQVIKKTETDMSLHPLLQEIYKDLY
Method in brief: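 Beta-lactamase FRET fluorescence was the read-out after a 1 h room-temperature substrate step, following 17 h compound treatment at 37C of HEK293H cells expressing a UAS-driven bla reporter responsive to PPARg.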

[3] = biological target: Peroxisome proliferator-activated receptor gamma (Homo sapiens) (UniProt P37231); test: qHTS assay to identify small molecule antagonists of the peroxisome proliferator-activated receptor gamma (PPARg) signaling pathway (AID 743191; calls by dose curve; note: nearly all actives have a fitted effect of over 30% in size); settings: HEK293H PPARg-UAS-bla, beta-lactamase ratio, antagonist, 17 h
Method in brief: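 GeneBLAzer PPARg UAS-bla HEK293H cells, 5 h post-plating, exposed to compounds 17 h at 37C. LiveBLAzer B/G FRET substrate added for 1 h at room temperature; beta-lactamase reporter read by fluorescence intensity.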

[4] = qHTS assay to identify small molecule antagonists of the peroxisome proliferator-activated receptor gamma (PPARg) signaling pathway - cell viability counter screen (AID 743194); settings: PPARg-bla HEK293H viability, CellTiter-Glo luminescence, 17 h, co-treated with 50 nM rosiglitazone; activity change, negative = cytotoxicity: at 62.6 µM (top of the series); note: nearly all actives have a fitted effect of over 55% in size
Method in brief: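 Cytotoxicity counter screen in PPARg-bla HEK293H cells, same wells as reporter assay. Compounds plus 50 nM rosiglitazone (final) for 17 h at 37 C, then viability read by CellTiter-Glo luminescence.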

[5] = qHTS assay for small molecule agonists of the antioxidant response element (ARE) signaling pathway (AID 743202; active = well fitted activation curve with a large enough effect in the signal ratio in the repeat runs, not every such curve was filed as active; inconclusive = weak or mixed curves, or effect the other way; inactive = no such curve, though single readings can be large or run the other way; the % refers to the signal ratio); settings: HepG2 ARE-bla reporter, beta-lactamase FRET, 16 h; activation: at 73.3 µM (top of the series) unless noted
Method in brief: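 Agonist mode reporter screen: HepG2 cells with ARE-controlled beta-lactamase are incubated with test compounds for 16 h at 37 C, and beta-lactamase activity is measured as fluorescence of cleaved B/G FRET substrate.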

[6] = qHTS assay for small molecule activators of the heat shock response signaling pathway - cell viability counter screen (AID 743209); settings: HSE-bla HeLa viability, CellTiter-Glo luminescence, 5 h; activity change, negative = cytotoxicity: at 62.6 µM (top of the series); note: nearly all actives have a fitted effect of over 50% in size
Method in brief: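 Luminescence from CellTiter-Glo, added after the beta-lactamase FRET read, gave the viability signal. Cells were HSE-bla HeLa treated with DMSO-dissolved compounds for 5 h at 37 C following overnight plating.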

[7] = qHTS assay for small molecule activators of the heat shock response signaling pathway (AID 743210; active = well fitted activation curve with a large enough effect in the signal ratio in the repeat runs, with a control signal flat, not every such curve was filed as active; inconclusive = weak or mixed curves; the % refers to the signal ratio); settings: HeLa HSE-bla reporter, beta-lactamase ratio, 5 h; activation: at 62.6 µM (top of the series)
Method in brief: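 Quantitative high-throughput format using an engineered HeLa line in which heat shock response elements drive beta-lactamase; after 5 h with compound, cells received a B/G FRET substrate and fluorescence was read.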

[8] = biological target: Peroxisome proliferator-activated receptor delta (Homo sapiens) (UniProt Q03181); test: qHTS assay to identify small molecule agonists of the peroxisome proliferator-activated receptor delta (PPARd) signaling pathway (AID 743212; calls by dose curve); settings: HEK293H PPARd-UAS-bla, beta-lactamase FRET ratio, 17 h; activation: at 62.6 µM (top of the series) unless noted
UniProt Q03181, sequence (Q03181 whole entry, looked up): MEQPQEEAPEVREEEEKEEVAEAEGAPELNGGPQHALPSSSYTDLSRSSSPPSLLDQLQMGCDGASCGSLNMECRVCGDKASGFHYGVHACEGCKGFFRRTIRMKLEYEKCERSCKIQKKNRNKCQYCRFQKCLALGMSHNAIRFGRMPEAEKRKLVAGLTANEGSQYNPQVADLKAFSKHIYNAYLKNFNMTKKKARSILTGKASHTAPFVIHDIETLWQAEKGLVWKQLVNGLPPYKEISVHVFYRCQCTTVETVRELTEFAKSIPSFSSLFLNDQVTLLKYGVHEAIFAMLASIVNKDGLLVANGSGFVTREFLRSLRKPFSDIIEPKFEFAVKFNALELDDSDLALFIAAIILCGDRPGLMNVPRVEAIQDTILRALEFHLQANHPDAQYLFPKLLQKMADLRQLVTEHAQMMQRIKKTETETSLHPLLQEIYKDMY
Method in brief: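 Quantitative high-throughput agonist screen in a HEK293H beta-lactamase reporter line under UAS control. Compounds in DMSO, at 37 C. Fluorescence read after 2 h with FRET substrate at room temperature.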

[9] = biological target: Peroxisome proliferator-activated receptor delta (Homo sapiens) (UniProt Q03181); test: qHTS assay to identify small molecule antagonists of the peroxisome proliferator-activated receptor delta (PPARd) signaling pathway (AID 743215; active = well fitted inhibition curve with a large enough effect in the signal ratio in the repeat runs, not every such curve was filed as active; inconclusive = weak or mixed curves, or effect the other way; inactive = no such curve, though single readings can be large or run the other way; the % refers to the signal ratio;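 note: cells stimulated with agonist L165041 at 300 nM final during compound exposure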; for ratio activity, negative = inhibition: % is set by controls: 0 for no effect and ±100 for the full control effect); settings: HEK293H PPARd-UAS-bla, beta-lactamase FRET ratio, antagonist, 17 h; ratio activity, negative = inhibition: at 62 µM (top of the series) unless noted
Method in brief: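 Read-out is beta-lactamase FRET fluorescence, measured 2 h after substrate addition at room temperature. Beforehand, UAS-bla HEK293H cells carrying the PPARd reporter were exposed to compounds with L165041 at 300 nM final for 17 h at 37 C.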

[10] = biological target: Bile acid receptor (Homo sapiens) (UniProt Q96RI1); test: qHTS assay to identify small molecule antagonists of the farnesoid-X-receptor (FXR) signaling pathway (AID 743217; active = well fitted inhibition curve with a large enough effect in the signal ratio in the repeat runs, not every such curve was filed as active; inconclusive = weak or mixed curves, or effect the other way; inactive = no such curve, though single readings can be large or run the other way; the % refers to the signal ratio; for activity change, negative = inhibition: % is set by controls: 0 for no effect and ±100 for the full control effect); settings: HEK293T FXR-UAS-bla, beta-lactamase ratio, CDCA-stimulated, 16 h; activity change, negative = inhibition: at 62.6 µM (top of the series) unless noted
UniProt Q96RI1, sequence (Q96RI1 whole entry, looked up): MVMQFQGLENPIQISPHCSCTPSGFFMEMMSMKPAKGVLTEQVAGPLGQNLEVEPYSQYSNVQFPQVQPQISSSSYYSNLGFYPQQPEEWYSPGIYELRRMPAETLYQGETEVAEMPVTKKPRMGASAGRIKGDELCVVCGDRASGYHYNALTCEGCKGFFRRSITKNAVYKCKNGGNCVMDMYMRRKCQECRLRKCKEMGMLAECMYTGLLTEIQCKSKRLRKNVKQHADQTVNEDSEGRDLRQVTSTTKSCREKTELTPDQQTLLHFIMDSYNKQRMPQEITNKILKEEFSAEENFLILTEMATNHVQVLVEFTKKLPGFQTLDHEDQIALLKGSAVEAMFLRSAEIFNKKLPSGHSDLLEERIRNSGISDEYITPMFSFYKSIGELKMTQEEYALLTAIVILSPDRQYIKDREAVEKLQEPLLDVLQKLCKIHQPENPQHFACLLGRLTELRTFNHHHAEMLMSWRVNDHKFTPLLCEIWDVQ
Method in brief: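 HEK 293T FXR-UAS-bla, 5000 cells/well; compound + CDCA 50 uM final; 16 h, 37 °C; B/G FRET substrate 2 h RT; fluorescence.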

[11] = qHTS assay to identify small molecule agonists of the farnesoid-X-receptor (FXR) signaling pathway - cell viability counter screen (AID 743218); settings: FXR-bla HEK293T viability, CellTiter-Glo luminescence, 16 h; viability change, negative = cytotoxic: at 62.6 µM (top of the series) unless noted; note: nearly all actives have a fitted effect of over 45% in size
Method in brief: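 HEK 293T FXR-bla cells; 5 h pre-incubation, 16 h compound exposure at 37 C; LiveBLAzer substrate 2 h RT, then CellTiter-Glo 30 min RT, luminescence.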

[12] = biological target: Bile acid receptor (Homo sapiens) (UniProt Q96RI1); test: qHTS assay to identify small molecule agonists of the farnesoid-X-receptor (FXR) signaling pathway (AID 743220; active = well fitted activation curve with a large enough effect in the signal ratio in the repeat runs, not every such curve was filed as active; inconclusive = weak or mixed curves, or effect the other way; the % refers to the signal ratio); settings: HEK293T FXR-UAS-bla, beta-lactamase FRET ratio, 16 h; activation: at 62.6 µM (top of the series) unless noted
Method in brief: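 Beta-lactamase reporter under UAS control in GeneBLAzer FXR HEK 293T cells (5000/well) measured with LiveBLAzer FRET substrate after 2 h at room temperature. Compound exposure lasted 16 h at 37C.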

[13] = qHTS assay to identify small molecule antagonists of the farnesoid-X-receptor (FXR) signaling pathway - cell viability counter screen (AID 743221; active = well fitted cell-killing curve with a large enough effect in the repeat runs, not every such curve was filed as active; inconclusive = weak or mixed curves, or effect the other way; inactive = no such curve, though single readings can be large or run the other way; note: nearly all actives have a fitted effect of over 50% in size); settings: FXR-bla HEK293T viability, CellTiter-Glo luminescence, 16 h; activity change, negative = cytotoxicity: at 62.6 µM (top of the series)
Method in brief: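 Cytotoxicity counter screen run in the FXR-bla reporter wells: HEK 293T cells exposed to compound with 50 uM (final) chenodeoxycholic acid for 16 h, 37 C, then viability measured by CellTiter-Glo luminescence after 30 min, room temperature.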

[14] = biological target: Vitamin D3 receptor (Homo sapiens) (UniProt P11473); test: qHTS assay to identify small molecule agonists of the vitamin D receptor (VDR) signaling pathway (AID 743222; calls by dose curve); settings: HEK293T VDR-UAS-bla, beta-lactamase FRET ratio, 16 h; activation: at 63.5 µM (top of the series) unless noted
UniProt P11473, sequence (P11473 whole entry, looked up): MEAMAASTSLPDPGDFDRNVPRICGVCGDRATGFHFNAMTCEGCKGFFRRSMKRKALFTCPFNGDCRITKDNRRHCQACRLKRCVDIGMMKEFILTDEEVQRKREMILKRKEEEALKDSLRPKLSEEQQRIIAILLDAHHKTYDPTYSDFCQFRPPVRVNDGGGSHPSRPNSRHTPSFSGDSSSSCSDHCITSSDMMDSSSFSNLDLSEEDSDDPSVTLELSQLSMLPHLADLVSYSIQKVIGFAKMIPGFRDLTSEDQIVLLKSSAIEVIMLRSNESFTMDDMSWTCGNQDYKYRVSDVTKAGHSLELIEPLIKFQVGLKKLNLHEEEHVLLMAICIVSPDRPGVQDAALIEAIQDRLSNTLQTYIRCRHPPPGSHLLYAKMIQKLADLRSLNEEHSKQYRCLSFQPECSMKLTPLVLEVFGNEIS
Method in brief: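 VDR-bla cells, 2,000/well; 4 h preincubation 37C; cpd (DMSO) 16 h; LiveBLAzer B/G substrate 2 h RT; fluorescence intensity read.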

[15] = biological target: Vitamin D3 receptor (Homo sapiens) (UniProt P11473); test: qHTS assay to identify small molecule antagonists of the vitamin D receptor (VDR) signaling pathway (AID 743223; active = well fitted inhibition curve with a large enough effect in the signal ratio in the repeat runs, not every such curve was filed as active; inconclusive = weak or mixed curves, or effect the other way; inactive = no such curve, though single readings can be large or run the other way; the % refers to the signal ratio); settings: VDR-UAS-bla HEK293T, beta-lactamase FRET ratio, 16 h; activity change, negative = inhibition: at 61 µM (top of the series) unless noted
Method in brief: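 Antagonist mode: compound added to VDR-bla cells alongside agonist 1alpha,25-dihydroxyvitamin D3 (3 nM final), incubation 16 h at 37C. Read-out is LiveBLAzer FRET fluorescence, 2 h at room temperature.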

[16] = qHTS assay to identify small molecule that activate the aryl hydrocarbon receptor (AhR) signaling pathway - cell viability counter screen (AID 743086); note: nearly all actives have a fitted effect of over 45% in size
Method in brief: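 HepG2-AhR-luc (HG2L7.5c1) cells, 4000/well, treated 24 h at 37 C with compound; viability measured as CellTiter-Fluor fluorescence after 30 min in the same wells as the luciferase read.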

[17] = qHTS assay to identify small molecule agonists of the peroxisome proliferator-activated receptor delta (PPARd) signaling pathway - cell viability counter screen (AID 743211); settings: PPARd-bla HEK293H viability, CellTiter-Glo luminescence, 17 h; activity change, negative = cytotoxicity: at 62.6 µM (top of the series); note: nearly all actives have a fitted effect of over 55% in size
Method in brief: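 Viability was measured as CellTiter-Glo luminescence (30 min, room temperature) in the same wells as the beta-lactamase readout. GeneBLAzer PPARd UAS-bla HEK293H cells received compound after 5 h plating and were incubated 17 h at 37 C.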

[18] = qHTS assay to identify small molecule antagonists of the peroxisome proliferator-activated receptor delta (PPARd) signaling pathway - cell viability counter screen (AID 743213); settings: PPARd-bla HEK293H viability, CellTiter-Glo luminescence, 17 h; viability change, negative = cytotoxic: at 62 µM (top of the series) unless noted; note: nearly all actives have a fitted effect of over 50% in size
Method in brief: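 Viability counter-screen, qHTS format: PPARd-bla HEK293H, L165041 300 nM final, 17 h compound exposure at 37 C, CellTiter-Glo luminescence after 30 min RT.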

[19] = ratio activity, negative = inhibition: at 62.6 µM (top of the series) unless noted
Potency is the fitted concentration of half-maximal effect; tags give direction and shape of the fitted curve or compound fluorescence and quenching.

For O=S(c1cc(Cl)cc(Cl)c1O)c1cc(Cl)cc(Cl)c1O, the Potency [1] was inconclusive: 2.66 µM [rising, partial curve, poor fit], the Potency [2] was inconclusive: 19 µM [rising, partial curve, poor fit] and the Potency [3, 19] was inconclusive: 3.76 µM. For the same compound, the Potency [4] was active: 26.6 µM, the Potency [5] was inconclusive: 21.1 µM [partial curve] and the Potency [6] was inconclusive: 11.9 µM [cytotoxic, partial curve, poor fit]. The Potency [7] was inconclusive: 9.81 µM, the Potency [8] was inconclusive: 29.8 µM [rising, single point] and the Potency [9] was inconclusive: 29.8 µM. The Potency [10] was inconclusive: 13.3 µM [partial curve], the Potency [11] was inconclusive: 29.8 µM [cytotoxic, single point] and the Potency [12] was inconclusive: 5.96 µM [rising, full curve, poor fit]. For the same compound, the Potency [13] was inconclusive: 29.8 µM [falling, single point], the Potency [14] was inconclusive: 4.22 µM [fluorescent, full curve] and the Potency [15] was inconclusive: 26.8 µM [fluorescent, single point].

With O=C(c1ccc(O)c(O)c1)c1ccc(O)cc1O the Potency [1] was “inactive”, the Potency [16] was inconclusive: 54.4 µM [falling, single point] and the Potency [5] was inconclusive: 30.6 µM [rising, full curve, poor fit]. For the same compound, the Potency [17] was inconclusive: 54.9 µM [cytotoxic, partial curve, poor fit], the Potency [8] was inconclusive: 54.9 µM and the Potency [9] was inconclusive: 34.6 µM [fluorescent]. The Potency [10] was inconclusive: 48.9 µM [rising, partial curve, poor fit], the Potency [12] was inconclusive: 54.9 µM [activator] and the Potency [14] was inconclusive: 54.9 µM [fluorescent].

In the case of Cc1c(C)c2c(c(C)c1OC(=O)CCC(=O)OCCO)CC[C@@](C)(CCC[C@H](C)CCC[C@H](C)CCCC(C)C)O2, the activity change, negative = cytotoxicity [1] is reported as inconclusive: -32.5% [cytotoxic], the activation [2] is reported as inconclusive: -11.2% and the Potency [3, 19] is reported as active: 15 µM. For the same compound, the Potency [5] was inconclusive: 11.9 µM [rising, single point], the Potency [18] was inconclusive: 5.31 µM [cytotoxic, partial curve, poor fit] and the ratio activity, negative = inhibition [9] was inconclusive: -55.7%. The activity change, negative = inhibition [10] was inconclusive: -52.2% [inhibitor], the Potency [11] was inconclusive: 33.5 µM [cytotoxic, single point] and the Potency [13] was inconclusive: 33.5 µM. The activation [14] was inconclusive: -12.3% and the Potency [15] was inconclusive: 26.8 µM.

For Cc1cc(SC2=C(O)C[C@@](CCc3ccc(N)cc3)(C(C)C)OC2=O)c(C(C)(C)C)cc1CO, the Potency [1] was inconclusive: 38.6 µM [cytotoxic, partial curve, poor fit], the activation [2] was inconclusive: -10.9% and the Potency [3, 19] was inconclusive: 43.6 µM [inhibitor, partial curve, poor fit]. For the same compound, the Potency [5] was inconclusive: 68.6 µM [rising, partial curve, poor fit], the Potency [6] was “inactive” and the Potency [7] was “inactive”. The ratio activity, negative = inhibition [9] was inconclusive: -0.541% and the activity change, negative = inhibition [10] was inconclusive: 8.91%.

With CCCCCCCCCCCC[N+](C)(C)Cc1ccccc1 the Potency [1] was inconclusive: 83.6 µM [cytotoxic, single point], the Potency [2] was inconclusive: 53.9 µM [cytotoxic] and inconclusive: 67 µM [cytotoxic] and the activation [2] was inconclusive: -15.1%. For the same compound, the Potency [3, 19] was inconclusive: 60.5 µM [cytotoxic, single point] and inconclusive: 75.2 µM [cytotoxic, single point] and inconclusive: 33.5 µM [inhibitor, single point], the Potency [8] was inconclusive: 60.5 µM [single point] and inconclusive: 75.2 µM [single point] and the activation [8] was inconclusive: 17.8%. The Potency [18] was active: 19.1 µM and active: 18.9 µM and active: 15 µM, the Potency [9] was active: 26.6 µM and the Potency [11] was active: 17 µM and active: 21.2 µM and inconclusive: 37.6 µM [cytotoxic, partial curve, poor fit]. For the same compound, the Potency [12] was inconclusive: 60.5 µM [cytotoxic] and inconclusive: 33.5 µM [single point], the activation [12] was inconclusive: 13.2% [at 81.1 µM] and the Potency [14] was inconclusive: 33.5 µM. The activation [14] was inconclusive: 3.94% [at 81.1 µM] and the Potency [15] was active: 42.8 µM and active: 53.2 µM and inconclusive: 26.8 µM.

With COC(=O)CCC(=O)OC the Potency [1] was “inactive”, the ratio activity, negative = inhibition ([3]; at 81.1 µM (top of the series)) was inactive: 6.77% and the ratio activity, negative = inhibition [3, 19] was inconclusive: 10.4%. For the same compound, the Potency [5] was “inactive” and the activity change, negative = inhibition [15] was inconclusive: 6.18% [at 78.8 µM].

From PubChem BioAssay (Tox21)
